# Test results taken from the RNAGym collection of RNA variant scans (doi:10.1093/nar/gkz1192).
# Read counts are not given, so values of variants with three or more changes are uncertain.
# B1: CPEB3 Ribozyme (parent)
# chain: UAACAGGGGGCCACAGCAGAAGCGUUCACGUCGCAGCCCCUGUCAGAUUCUGGUGAAUCUGCGAAUUCUGCUGUAUAUCUC
# Variants of: B1
# Assay: self-cleavage, relative activity (ratio to wild type); higher = more cleavage; in vitro, sequencing
# Procedure, shortened: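 CPEB3 self-cleaving ribozyme mutant libraries were made by rounds of error-prone PCR, barcoded, and transcribed in vitro with T7 RNA polymerase for 5 hours at 37°C. Cleavage occurred during transcription and a 15 min DNase I step before EDTA stop. RNAs were reverse transcribed with template switching and Illumina-sequenced, with DNA sequencing mapping barcodes to variants. Relative activity is the variant's cleaved/total read fraction divided by wild type's (minimum 5 reads), averaged across three batches.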
row,Variant,self-cleavage
1,G22C G30C U48C,0.07
2,G22A U31A U67C,0.13
3,C23A U31A U43A U74A U80C,0.34
4,G22A A35G U51A U54C C62U,0.13
5,C23A C34A A35U A64G,0.07
6,C23A C27A U41A,0.08
7,G22A A75U U78C,0.28
8,G22A U25A A45G A56G U78A,0.22
9,C23A U31A A56G U80C,0.25
10,C23A U31A A56G U80A,0.06
11,G22A A35U A56G A57G,0.06
12,C23G A28G U49A,0.18
13,C23A U48C U51C U58C,0.05
14,G22C A56G U60C U76C,0.07
15,G22A U41G A56G U58C U69C U72C U80C,0.08
16,G22U C38G G53U A57U,0.11
17,G22A A35G A75U,0.77
18,C23A U43C G55A A56G U80C,0.13
19,G22U U41C U58C U60C U66C U78C,0.07
20,G22C U26A U58G,0.19
21,C23A U41A U69C,0.14
22,C23A U25C U66C,0.13
23,C23G A35G A56G,0.11
24,C23A U60C C71A,0.06

row,Variant,self-cleavage
1,G22U A28C A75G,0.12
2,G22A U41G A45U U49C U67C A75G,0.08
3,G22U G30U U69C U72G,0.06
4,G22A U41C A64U,0.15
5,C23A U31C U49C,0.15
6,C23A U41A A64G,0.2
7,G22C U31C U41C U60C U69C,0.03
8,G22A A35G C39U U41C A64G,0.23
9,G22C U49C A64U,0.12
10,G22A U49C U66C,0.23
11,C23A C29A U67A,0.11
12,C23A A28G U31C A56G U67C U72G U76A,0.05
13,G22A U25C A28U U41C,0.07
14,C23A A28G C29A U54C,0.09
15,C23G A35G U58C C59U G70A,0.05
16,G22A C32A U66C,0.29
17,G22U G33A A35G,0.17
18,G22A U26C A56G A65G U78A,0.06
19,G22U C34G G53A U58A,0.1
20,G22U C29U U49C U60C,0.12
21,G22A G24A U31G A45G,0.07
22,G22A U51C U60C U66C U72C,0.12
23,G22A U26A U43C,0.17
24,C23A C34A U51A,0.14

row,Variant,self-cleavage
1,G22A U41C U49C U69C,0.06
2,G22U G42A U60A A64U U69A,0.08
3,C23A U51A A56G A77G,0.09
4,C23A A35U C39A U58G U66C,0.07
5,C23A U25C U58C G70A,0.11
6,G22U A28U A57G U58G U76A,0.14
7,G22U A35G A57G,0.26
8,G22A A47G A56G C79G,0.05
9,G22A U25A U31C A57G,0.16
10,C23A G53U U76C,0.16
11,C23A A45G G52A U54G,0.33
12,G22C A28G U49C,0.07
13,G22C U25C G33A G53C U58A,0.04
14,C23A U26G A47G U72A U80C,0.11
15,C23A A47G U67C,0.05
16,C23A U41G A47U U54C,0.1
17,G22U U41C U69A U74C,0.12
18,G22A A45U U51C,0.12
19,G22C A47G U69A A77U,0.25
20,C23A U26A U41C A45U U76C,0.11
21,C23A U54C A65G U74A,0.15
22,G22U U51A U66C,0.47
23,G22U U31C C38A,0.15
24,C23A U25A U54A,0.27

row,Variant,self-cleavage
1,G22U C27A A28G U31A U54C U69A U80C,0.06
2,C23G A35U A75G,0.11
3,C23A A56G U80C,0.12
4,G22C U43A A47G,0.22
5,G22U A47G U67C U74C,0.13
6,C23A A28G U31C A56G U67C U78C,0.09
7,G22U U26C A64G A65G U78C,0.08
8,C23A G46A A56G A64U A77U,0.04
9,G22U A35U A75G,0.07
10,G22A U25C A28U G30A U41C U80A,0.07
11,G22A A56U A75G U80C,0.12
12,C23A U31A A35G A56G,0.22
13,G22A U41C U60C,0.36
14,C23A A45G U54A,0.17
15,C23A A45G A75U U80A,0.06
16,G22U U41A A47U U72C,0.13
17,G22C U26A U51C U74A,0.19
18,G22A U31C A56U,0.12
19,C23A A28U A45G,0.21
20,C23A U51A A64U A65G U72C,0.07
21,G22U U41G U72C,0.07
22,G22U A47U U74C,0.1
23,C23G A35U U41A C62A U67C,0.05
24,G22C C39A U58C,0.07

row,Variant,self-cleavage
1,G22U U43C A47U U74C,0.08
2,C23A A35G C44G A47U U69C U74C A77U,0.05
3,G22U U26A G33A A65G,0.12
4,G22C C44U A64U,0.14
5,G22A U25C A57C A65G,0.08
6,G22A U54C A65G,0.18
7,C23A U76C A77G,0.22
8,G22A G33A U76A,0.41
9,C23A C38G A56G U60A,0.2
10,G22A U25C C40A U41A U48C,0.06
11,G22C U26A U58C U72C,0.12
12,C23A U72G A77G,0.06
13,C23A U26C U43A U72C U76C,0.29
14,C23A A45G U67A,0.11
15,C23A A35G A47G C79U,0.11
16,G22A A56G U60A G73A,0.08
17,C23A A45G U49A,0.47
18,G22A G42A U43C U60A U80A,0.16
19,G22C A35G C62A A64G,0.29
20,G22U A28U U31A A57G U72C,0.06
21,C23G A35G U80A,0.17
22,G22A U60A G63A,0.39
23,G22U U26A U80C,0.25
24,C23A U49A U72A,0.1

row,Variant,self-cleavage
1,G22U C37U U43C,0.08
2,C23A A45G U60C U67A A77G,0.11
3,C23A U26A A35C A65G,0.16
4,C23A A45G U58C U72G,0.12
5,G22A U25C G63U,0.22
6,C23A U25A G61A U67C U72A U80A,0.07
7,G22U A35G U51G C62A U72C,0.16
8,C23A U31C U41C U49A U78C,0.13
9,G22A C40A A47G C50U U51A,0.07
10,C23A U31C A56G U67A,0.11
11,G22U G30U C34U U43C U66C U80C,0.08
12,G22U U48C C62A A64G,0.14
13,C23A U31A A47G U49C,0.11
14,C23A U31C U41C U51A A75G,0.15
15,C23A C37G U72C U78C,0.07
16,G22A U26A U67A A75G,0.1
17,C23A U31A A56G U66C,0.06
18,G22U A28G A35C U48C,0.08
19,G22A G24A U26C U43C A45G,0.16
20,C23A U72C A75G,0.18
21,C23A A35G A45U A47C U48A U60C,0.07
22,G22A U41C U49C U78C,0.05
23,C23G A28G A57G A64G U72C A77G,0.18
24,G22U A56G U78C,0.09

row,Variant,self-cleavage
1,C23A C29A U54A A65U,0.05
2,G22A G24A G30A A47G U60A,0.12
3,C23A U41C U78A U80A,0.3
4,G22A U26C C34A U43C A45G,0.21
5,G22C A56G U60A,0.15
6,G22C A35G C62A,0.06
7,C23G A28G U60A U66C,0.08
8,G22C A35G A45U C59A,0.16
9,C23A U51A U60A U66C,0.07
10,G22U U49C U54C U66G,0.15
11,C23A U31C U41C,0.26
12,G22A A47U U54A A56U U69C,0.06
13,C23A U26A C38A A45G U48C A56U,0.03
14,G22A G42A U43C A75G,0.15
15,G22A U51A A77G,0.09
16,G22A U25C U60A U72C,0.15
17,G22A A45U U80A,0.08
18,G22U U31A U54C,0.15
19,G22A A45G A56U,0.11
20,G22U A35C A45G C62G U78C U80C,0.06
21,G22A U54C A57U U67C A77U,0.04
22,G22A U25C A75U,0.27
23,G22A U43C U60A C62U,0.1
